These results are taken from a collection of fitness landscapes (doi:10.1126/science.1257360).

The chains are these.
B1: PhoQ; a variant is named by its letters at X, in order, P23837 (parent)
chain: MKKLLRLFFPLSLRVRFLLATAAVVLVLSLAYGMVALIGYSVSFDKTTFRLLRGESNLFYTLAKWENNKLHVELPENIDKQSPTMTLIYDENGQLLWAQRDVPWLMKMIQPDWLKSNGFHEIEADVNDTSLLLSGDHSIQQQLQEVREDDDDAEMTHSVAVNVYPATSRMPKLTIVVVDTIPVELKSSYMVWSWFIYVLSANLLLVIPLLWVAAWWSLRPIEALAKEVRELEEHNRELLNPATTRELTSLVRNLNRLLKSERERYDKYRTTLTDLTHSLKTPLXXLQXXLRSLRSEKMSVSDAEPVMLEQISRISQQIGYYLHRASMRGGTLLSRELHPVAPLLDNLTSALNKVYQRKGVNISLDISPEISFVGEQNDFVEVMGNVLDNACKYCLEFVEISARQTDEHLYIVVEDDGPGIPLSKREVIFDRGQRVDTLRPGQGVGLAVAREITEQYEGKIVAGESMLGGARMEVIFGRQHSAPKDE

The list shows a part of the results.

Variants of B1 are the subject of the experiment. The experiment is described as follows: enrichment ratio after two sorts for PhoP signalling (ratio (wild type AVST 3.29)); higher = more functional. The conditions noted are these: with PhoP (E. coli).
SFVK: the enrichment ratio was at most 0.25.

As to NTPD, the enrichment ratio was at most 0.25.

As for KNAI, the enrichment ratio is at most 0.25.

As to TWYH, the enrichment ratio is at most 0.25.

As to VQWH, the enrichment ratio was at most 0.25.

As for WDDN, the enrichment ratio was at most 0.25.

On to VLNL, for which the enrichment ratio is at most 0.25.

For the variant FKVG, the enrichment ratio is 2.64.

Consider DWHI, for which the enrichment ratio was at most 0.25.

Regarding GANK, the enrichment ratio was at most 0.25.

For HNFI, the enrichment ratio is at most 0.25.

RYCE: the enrichment ratio was at most 0.25.

For NMTS, the enrichment ratio is at most 0.25.

With THRQ, the enrichment ratio was at most 0.25.

Turning to ETNS, the enrichment ratio is at most 0.25.

For the variant EGTP, the enrichment ratio was at most 0.25.

On to TGRP, for which the enrichment ratio is at most 0.25.

As to QPWC, the enrichment ratio is at most 0.25.

For the variant DEKL, the enrichment ratio is at most 0.25.

As for PGVA, the enrichment ratio is at most 0.25.

On to RALG, for which the enrichment ratio is at most 0.25.

As for GLYL, the enrichment ratio was at most 0.25.

Consider WTPP, for which the enrichment ratio is at most 0.25.

As for GASG, the enrichment ratio was at most 0.25.

Turning to TPWT, the enrichment ratio is at most 0.25.

For the variant QAVM, the enrichment ratio was at most 0.25.

With RNIQ, the enrichment ratio is at most 0.25.

In the case of GYQC, the enrichment ratio was at most 0.25.

Turning to HIMM, the enrichment ratio is at most 0.25.

Take SKGA: the enrichment ratio is at most 0.25.

For the variant RLRV, the enrichment ratio is at most 0.25.

Turning to GNHC, the enrichment ratio was at most 0.25.

Turning to SGIW, the enrichment ratio is at most 0.25.

In the case of FMAP, the enrichment ratio was at most 0.25.

For LFIH, the enrichment ratio is at most 0.25.

Consider DYRQ, for which the enrichment ratio is at most 0.25.

For the variant VHRK, the enrichment ratio is at most 0.25.

As for WHPL, the enrichment ratio was at most 0.25.

As for RAML, the enrichment ratio was at most 0.25.

Consider PWFY, for which the enrichment ratio was at most 0.25.

For the variant MKWD, the enrichment ratio was at most 0.25.

For the variant TGVN, the enrichment ratio was 5.82.

For TTPF, the enrichment ratio is at most 0.25.

As for HTHY, the enrichment ratio was at most 0.25.

As for TPEW, the enrichment ratio was at most 0.25.

With QKDS, the enrichment ratio is at most 0.25.

As to LLIF, the enrichment ratio is at most 0.25.

With YFHW, the enrichment ratio is at most 0.25.

For the variant YGTC, the enrichment ratio is at most 0.25.

Consider AHSM, for which the enrichment ratio was 4.11.

Consider AAVR, for which the enrichment ratio worked out at 1.39.

On to KRIV, for which the enrichment ratio is at most 0.25.

For TRLP, the enrichment ratio was at most 0.25.

Turning to PDSV, the enrichment ratio is at most 0.25.

In the case of CTGH, the enrichment ratio was at most 0.25.

Take FCKL: the enrichment ratio was at most 0.25.

In the case of FLKH, the enrichment ratio is at most 0.25.

On to RAWL, for which the enrichment ratio was at most 0.25.

Take IVGQ: the enrichment ratio was at most 0.25.

Regarding QTIA, the enrichment ratio is at most 0.25.

In the case of GKNM, the enrichment ratio is at most 0.25.

On to PTLN, for which the enrichment ratio was at most 0.25.

RDNK: the enrichment ratio was at most 0.25.

For MAWH, the enrichment ratio was determined as 1.71.

Turning to TEHG, the enrichment ratio was 6.55.

Take ELHE: the enrichment ratio was at most 0.25.

On to TKWI, for which the enrichment ratio is at most 0.25.

For the variant LASV, the enrichment ratio is at most 0.25.

For the variant AFPK, the enrichment ratio is at most 0.25.

For IGRG, the enrichment ratio was at most 0.25.

As for FNML, the enrichment ratio was determined as 4.

Regarding PHAG, the enrichment ratio is at most 0.25.

On to GEHR, for which the enrichment ratio is at most 0.25.

In the case of YNCL, the enrichment ratio is at most 0.25.

Turning to RPQI, the enrichment ratio worked out at 1.11.

With LVFF, the enrichment ratio was at most 0.25.

In the case of KENP, the enrichment ratio is at most 0.25.

Take FSEK: the enrichment ratio was at most 0.25.

For the variant ISAA, the enrichment ratio was at most 0.25.

Consider QNRF, for which the enrichment ratio was at most 0.25.

On to NARV, for which the enrichment ratio is at most 0.25.

For KICA, the enrichment ratio was at most 0.25.

Turning to YQLQ, the enrichment ratio turned out to be 2.26.

On to DSKL, for which the enrichment ratio is at most 0.25.

For THYP, the enrichment ratio is at most 0.25.

On to VWFQ, for which the enrichment ratio is at most 0.25.

With AGIT, the enrichment ratio amounted to 1.83.

Regarding EDPS, the enrichment ratio was at most 0.25.

Consider GHDK, for which the enrichment ratio is at most 0.25.

Take YVHM: the enrichment ratio is at most 0.25.

ESKC: the enrichment ratio was at most 0.25.

VSVE: the enrichment ratio was at most 0.25.

Take QPYT: the enrichment ratio was at most 0.25.

As to RLEW, the enrichment ratio was at most 0.25.

In the case of PRYG, the enrichment ratio is at most 0.25.

Take GELV: the enrichment ratio stood at 10.8.

For ANDP, the enrichment ratio is at most 0.25.

Turning to IDGY, the enrichment ratio is at most 0.25.

In the case of AETQ, the enrichment ratio was at most 0.25.

With NNYW, the enrichment ratio was at most 0.25.

Take FNDR: the enrichment ratio was at most 0.25.

Consider VVTV, for which the enrichment ratio was at most 0.25.

Consider ICLL, for which the enrichment ratio amounted to 10.3.

As for PNIC, the enrichment ratio was at most 0.25.

Consider PAAN, for which the enrichment ratio is at most 0.25.

Take PQED: the enrichment ratio was at most 0.25.

On to EISQ, for which the enrichment ratio was at most 0.25.

Consider GDFN, for which the enrichment ratio was at most 0.25.

As for GYKD, the enrichment ratio is at most 0.25.

Consider AACM, for which the enrichment ratio came out at 2.51.

In the case of FHIM, the enrichment ratio was at most 0.25.

Consider TFGQ, for which the enrichment ratio was at most 0.25.

Turning to PMWG, the enrichment ratio was at most 0.25.

In the case of RSHC, the enrichment ratio is at most 0.25.

On to IILV, for which the enrichment ratio is 1.58.

As for WKMQ, the enrichment ratio was at most 0.25.

With SKRW, the enrichment ratio was at most 0.25.

In the case of KCTN, the enrichment ratio is at most 0.25.

With NKQN, the enrichment ratio was at most 0.25.

WGRP: the enrichment ratio was at most 0.25.

As to TRCG, the enrichment ratio was at most 0.25.

FYNL: the enrichment ratio was at most 0.25.

As to HVRN, the enrichment ratio is at most 0.25.

Turning to DCGF, the enrichment ratio was at most 0.25.

As for ECMY, the enrichment ratio is at most 0.25.

Turning to YPLV, the enrichment ratio was at most 0.25.

As for FNLC, the enrichment ratio was at most 0.25.

TMCY: the enrichment ratio stood at 0.423.

Consider QLWH, for which the enrichment ratio was at most 0.25.

For SSQF, the enrichment ratio stood at 0.505.

Consider MDGA, for which the enrichment ratio was at most 0.25.

As for EEPT, the enrichment ratio is at most 0.25.

In the case of AQGE, the enrichment ratio was at most 0.25.

For the variant KLNV, the enrichment ratio was at most 0.25.

Regarding KHYP, the enrichment ratio is at most 0.25.

As for WMHA, the enrichment ratio is at most 0.25.

For the variant IQLD, the enrichment ratio was at most 0.25.

Regarding QDFR, the enrichment ratio was at most 0.25.

As for NDIK, the enrichment ratio is at most 0.25.

As for WCSP, the enrichment ratio was at most 0.25.

With HRTS, the enrichment ratio is at most 0.25.

As to NQSQ, the enrichment ratio is at most 0.25.

On to MAFG, for which the enrichment ratio was determined as 0.508.

Regarding ERWS, the enrichment ratio was at most 0.25.

Take QCAS: the enrichment ratio was at most 0.25.

With IRWK, the enrichment ratio was at most 0.25.

With VDKH, the enrichment ratio was at most 0.25.

As for LQTY, the enrichment ratio is at most 0.25.

For the variant TDQC, the enrichment ratio was at most 0.25.

Turning to HFSF, the enrichment ratio was 0.903.

In the case of EIDK, the enrichment ratio is at most 0.25.

On to RISK, for which the enrichment ratio is at most 0.25.

Take MRIQ: the enrichment ratio was at most 0.25.
